Measured values as given in the supplement of paper PMC7826260.
Some of the results follow. Cleavage of a single-stranded DNA pool by Rep nickase domains was read by sequencing (1 h at 37 °C, 3 µM enzyme); the outer parts of the 90-letter strands are left off. The score is log2 (uncut reads / reads without enzyme); more negative means more cut, near 0 not cut, and no call is made. The scaling is to total reads; values above 0 arise when much of the pool is cut.

Experiments:
Experiment in all cases: uncleaved DNA left, log2 of reads against the no-enzyme library (log2 ratio); higher = less cleavage (more negative = more Rep cleavage of the k-mer); sequences stand for … in CTCGTCCG…ACCGGAGA
[1] = tested on: T1, Rep nickase domain of Muscovy duck circovirus
T1 sequence (residues 1-111, tag not shown): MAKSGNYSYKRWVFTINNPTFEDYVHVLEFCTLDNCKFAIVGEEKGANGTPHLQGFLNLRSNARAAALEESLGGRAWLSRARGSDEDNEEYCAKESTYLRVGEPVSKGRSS
Protocol: (§1)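 A pool of 90-nt single-stranded DNAs with seven random bases just before the constant AC of the nick site (name = the seven bases) was cut by 3 µM recombinant His6-SUMO-tagged Rep nickase domain (300 nM DNA, 50 mM HEPES pH 8.0, 50 mM NaCl, 1 mM MnCl2, 1 h, 37 °C, three replicates). Uncut DNA was amplified and sequenced.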

[2] = tested on: T2, Rep nickase domain of banana bunchy top virus
T2 sequence (residues 1-94, tag not shown): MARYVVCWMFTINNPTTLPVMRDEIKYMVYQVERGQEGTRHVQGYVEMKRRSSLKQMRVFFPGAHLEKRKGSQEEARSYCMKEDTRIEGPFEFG
Protocol: as §1

[3] = tested on: T3, Rep nickase domain of cabbage leaf curl virus
T3 sequence (residues 1-116, tag not shown): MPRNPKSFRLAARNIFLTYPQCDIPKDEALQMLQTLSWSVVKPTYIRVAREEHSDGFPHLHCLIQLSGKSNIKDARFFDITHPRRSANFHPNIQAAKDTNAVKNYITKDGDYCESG
Protocol: as §1

[4] = tested on: T4, Rep nickase domain of chickpea chlorotic dwarf virus
T4 sequence (residues 1-124, tag not shown): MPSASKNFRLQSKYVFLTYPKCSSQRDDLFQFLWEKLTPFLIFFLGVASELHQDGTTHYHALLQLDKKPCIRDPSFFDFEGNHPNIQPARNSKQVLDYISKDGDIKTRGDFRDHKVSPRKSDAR
Protocol: as §1

[5] = tested on: T5, Rep nickase domain of faba bean necrotic yellows virus
T5 sequence (residues 1-98, tag not shown): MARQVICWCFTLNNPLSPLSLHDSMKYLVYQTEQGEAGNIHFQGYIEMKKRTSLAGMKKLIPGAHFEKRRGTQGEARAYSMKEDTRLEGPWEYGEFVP
Protocol: as §1

[6] = tested on: T6, Rep nickase domain of maize striate mosaic virus
T6 sequence (residues 1-117, tag not shown): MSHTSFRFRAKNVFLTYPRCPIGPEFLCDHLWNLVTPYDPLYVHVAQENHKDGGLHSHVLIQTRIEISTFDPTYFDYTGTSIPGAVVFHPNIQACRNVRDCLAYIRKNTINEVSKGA
Protocol: as §1

[7] = tested on: T7, Rep nickase domain of porcine circovirus 2
T7 sequence (residues 2-116, tag not shown): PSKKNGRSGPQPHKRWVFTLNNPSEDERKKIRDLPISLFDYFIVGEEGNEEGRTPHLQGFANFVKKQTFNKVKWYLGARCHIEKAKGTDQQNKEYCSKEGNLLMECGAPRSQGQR
Protocol: as §1

[8] = tested on: T8, Rep nickase domain of tomato yellow leaf curl virus
T8 sequence (residues 1-136, tag not shown): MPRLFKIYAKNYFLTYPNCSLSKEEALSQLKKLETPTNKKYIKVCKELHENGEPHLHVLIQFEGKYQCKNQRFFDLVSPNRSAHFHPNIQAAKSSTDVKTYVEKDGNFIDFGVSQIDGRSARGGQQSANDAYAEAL
Protocol: as §1

[9] = tested on: T9, Rep nickase domain of wheat dwarf virus
T9 sequence (residues 1-137, tag not shown): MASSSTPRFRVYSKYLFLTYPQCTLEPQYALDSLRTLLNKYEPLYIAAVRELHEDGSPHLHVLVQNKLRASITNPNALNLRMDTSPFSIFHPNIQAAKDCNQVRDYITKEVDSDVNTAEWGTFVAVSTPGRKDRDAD
Protocol: as §1

Sequence | uncleaved DNA left (log2) [1] | uncleaved DNA left (log2) [2] | uncleaved DNA left (log2) [3] | uncleaved DNA left (log2) [4] | uncleaved DNA left (log2) [5] | uncleaved DNA left (log2) [6] | uncleaved DNA left (log2) [7] | uncleaved DNA left (log2) [8] | uncleaved DNA left (log2) [9]
GATGGAG | 0.0707 | 0.0585 | -0.443 | -0.364 | 0.0592 | -0.698 | 0.298 | 0.0776 | 0.00913
CAGGGTG | 0.138 | 0.134 | -0.282 | -0.253 | 0.0831 | -0.684 | 0.243 | 0.128 | -0.00489
ACGCGTG | -0.0981 | -0.111 | -0.65 | -0.566 | -0.0763 | -0.695 | 0.0775 | -0.00189 | -0.178
GAAGGAG | 0.0906 | 0.166 | 0.0163 | 0.967 | -0.00849 | 0.423 | 0.177 | -0.0167 | 0.0478
CAGGTAC | 0.0641 | 0.158 | 0.142 | 0.395 | 0.0575 | 0.0314 | 0.256 | 0.0696 | 0.182
CACAGGT | -0.0339 | -0.00172 | 0.297 | 0.865 | -0.0348 | 0.946 | 0.00917 | 0.0344 | 0.00597
TATACAT | 0.0283 | -0.13 | 0.253 | -0.0209 | 0.0788 | 0.898 | -0.363 | 0.0888 | 0.0964
CGCCGAC | 0.0884 | -0.0361 | 0.196 | 0.31 | -0.118 | 0.0207 | 0.0574 | -0.0585 | 0.135
ATTATGC | 0.0459 | -0.0261 | -0.546 | -0.515 | 0.0314 | -1.12 | 0.0836 | 0.0981 | 0.043
CGACATG | 0.0703 | 0.125 | 0.0584 | 0.682 | -0.0172 | 1.71 | -0.0211 | 0.0224 | 0.107
TCTGGTA | 0.0429 | -0.065 | 0.149 | -0.0683 | 0.0579 | 0.496 | 0.0142 | 0.0166 | 0.0441
GGTACAC | 0.0312 | 0.155 | 0.814 | 1.82 | 0.127 | 2.19 | 0.177 | 0.133 | 0.248
TACAGGC | 0.193 | 0.0243 | 0.152 | 0.0507 | 0.0945 | -0.645 | 0.0926 | 0.135 | 0.0625
AGTTCTT | -2.62 | -1.64 | -0.0911 | -1.55 | -0.374 | 0.18 | -3.49 | 0.00063 | -0.0429
TGCGGGC | -0.0107 | 0.0591 | -0.14 | -0.243 | 0.135 | -0.277 | 0.0176 | 0.0888 | -0.00857
AGGGCTT | 0.0553 | 0.0751 | 0.421 | 1.18 | 0.0152 | 1.86 | 0.0625 | -0.231 | -0.00784

Sequence | uncleaved DNA left (log2) [1] | uncleaved DNA left (log2) [2] | uncleaved DNA left (log2) [3] | uncleaved DNA left (log2) [4] | uncleaved DNA left (log2) [5] | uncleaved DNA left (log2) [6] | uncleaved DNA left (log2) [7] | uncleaved DNA left (log2) [8] | uncleaved DNA left (log2) [9]
TCCTTGG | 0.177 | -0.0105 | 0.0953 | 0.222 | 0.0178 | -0.0494 | 0.109 | 0.0474 | 0.0874
TCCATCT | -0.023 | 0.000623 | -0.0308 | -1.72 | 0.0233 | -0.701 | -0.102 | -0.0244 | -0.0891
ATAAGCA | 0.0896 | 0.114 | -0.81 | -1.84 | 0.0823 | -1.08 | -0.00672 | 0.0521 | -0.0419
TGTCCGT | 0.0472 | -0.0373 | -0.114 | -0.421 | -0.0224 | -0.628 | -0.0452 | -0.0087 | -0.0426
GTACTCA | 0.0297 | 0.0406 | 0.219 | 0.7 | -0.0876 | 1.58 | -0.0434 | 0.104 | 0.0905
CCACGCT | -0.0811 | -0.0898 | -0.722 | -1.95 | -0.204 | -0.829 | -0.0793 | -0.0846 | -0.318
ATCCAAG | -0.0553 | -0.0135 | -0.802 | -0.367 | -0.0885 | -1.05 | 0.0839 | -0.0231 | -0.0675
TAAATGG | -0.0609 | -0.0815 | -0.201 | -0.129 | -0.122 | -0.18 | 0.0604 | -0.111 | -0.0751
AGAGGTA | 0.127 | 0.178 | 0.378 | 0.874 | 0.0228 | 1.15 | 0.0298 | 0.0592 | 0.0809
GCTGGCG | 0.00243 | 0.0672 | -0.441 | 0.989 | 0.0782 | 0.284 | 0.176 | 0.0524 | -0.0628
CTCACTA | 0.0399 | 0.054 | 0.0192 | -1.46 | 0.0716 | -0.608 | 0.0589 | 0.105 | 0.0599
GCAGGGT | 0.0565 | 0.101 | 0.346 | 1.24 | -0.00743 | 1.4 | 0.176 | 0.0132 | -0.00907
TGGCACA | 0.0909 | 0.0671 | 0.57 | 0.877 | -0.168 | 1.4 | 0.0674 | -0.0357 | 0.0945
TAATGAC | 0.187 | 0.0293 | -3.31 | -2.39 | 0.0717 | -0.84 | 0.136 | 0.0686 | -0.462
TGGCATG | 0.0346 | -0.0723 | 0.12 | 0.652 | -0.0702 | 0.478 | -0.0422 | -0.171 | 0.13
TCGGCAC | 0.0314 | 0.127 | 0.0958 | 0.193 | 0.0138 | -0.141 | 0.0458 | 0.0444 | -0.0125
